Here are results for 88 compounds from article PMC4336329 (PLoS ONE, 2015).

Hit rate of the full screen: of about 310,000 compounds, about 14,000 (4.5%) showed an effect of 50% or more. Effects have a minus sign here. Some of the results follow.
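Further: peak tail current of the secondary pulse compared with the same well before compound.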

The target in the test is human ether-à-go-go-related gene (hERG) potassium channel (human, UniProt Q12809). Nature of the test: primary screen, population patch clamp on CHO cells stably expressing hERG.
Sequence of human ether-à-go-go-related gene (hERG) potassium channel (Q12809 whole entry, looked up): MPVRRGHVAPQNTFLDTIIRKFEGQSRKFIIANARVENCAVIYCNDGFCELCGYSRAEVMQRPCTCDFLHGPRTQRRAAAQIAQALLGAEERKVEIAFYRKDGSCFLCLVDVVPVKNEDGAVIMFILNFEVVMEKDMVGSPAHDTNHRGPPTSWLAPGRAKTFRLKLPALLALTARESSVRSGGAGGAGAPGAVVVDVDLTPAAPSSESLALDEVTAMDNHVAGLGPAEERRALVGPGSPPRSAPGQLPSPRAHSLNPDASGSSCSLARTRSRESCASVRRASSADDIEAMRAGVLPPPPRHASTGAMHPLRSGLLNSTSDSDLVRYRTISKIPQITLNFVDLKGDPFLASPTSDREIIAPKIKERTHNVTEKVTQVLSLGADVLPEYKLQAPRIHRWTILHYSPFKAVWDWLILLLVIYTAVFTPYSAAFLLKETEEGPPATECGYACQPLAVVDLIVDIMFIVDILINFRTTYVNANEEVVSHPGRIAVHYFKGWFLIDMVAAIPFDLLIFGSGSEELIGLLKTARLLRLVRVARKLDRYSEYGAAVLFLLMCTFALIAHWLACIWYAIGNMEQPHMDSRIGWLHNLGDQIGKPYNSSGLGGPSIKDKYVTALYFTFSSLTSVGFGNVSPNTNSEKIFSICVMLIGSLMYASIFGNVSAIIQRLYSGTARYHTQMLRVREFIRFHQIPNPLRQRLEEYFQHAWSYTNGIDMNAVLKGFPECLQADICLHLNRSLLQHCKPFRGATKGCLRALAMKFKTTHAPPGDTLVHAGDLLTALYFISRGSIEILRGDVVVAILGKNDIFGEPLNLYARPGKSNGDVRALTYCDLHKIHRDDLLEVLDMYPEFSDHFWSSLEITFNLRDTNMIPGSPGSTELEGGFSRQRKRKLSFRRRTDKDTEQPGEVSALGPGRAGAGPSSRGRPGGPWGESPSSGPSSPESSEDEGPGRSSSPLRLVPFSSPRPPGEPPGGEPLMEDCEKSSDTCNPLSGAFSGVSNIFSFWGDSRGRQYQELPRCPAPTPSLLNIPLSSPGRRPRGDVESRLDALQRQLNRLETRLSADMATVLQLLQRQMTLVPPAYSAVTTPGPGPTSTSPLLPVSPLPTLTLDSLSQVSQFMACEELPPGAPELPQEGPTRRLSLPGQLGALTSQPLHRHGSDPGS
As to `CCN(CC)c1ccc(/C=N/NC(=O)c2ccco2)cc1`, the “hERG current change (%, negative = inhibition) at 10uM” value was -6.99%. For `Cc1cc2[nH]c(=S)[nH]c2cc1C` the value was -20.1%; for `Cc1cccc(NC(=O)CSCC(=O)Nc2cc(Cl)ccc2N2CCOCC2)c1`, -31%; for `Cc1ccccc1NC(=O)CC1S/C(=N/c2nccs2)N(C)C1=O` (stereo not shown), -0.096%. For `COc1ccc(NC(=O)c2cc(Cl)ccc2NC(=O)c2ccco2)c(OC)c1` the value was -85.2%; for `CC1CCCN(Cc2cccc(Oc3ccccc3)c2)C1` (stereo not shown), -20.7%. For `Brc1ccc(-c2n(-c3ccccn3)c3ccccc3[n+]2-c2ccccn2)cc1.[I-]` the value was -29.9%. `CCC(C)c1ccccc1NC(=O)Cc1coc2cc3c(cc12)CCC3` (stereo not shown): the “hERG current change (%, negative = inhibition) at 10uM” value is listed as -10.8%. In the case of `CCCN(CCC)C(=O)c1cc(S(=O)(=O)N2CCCCC2)c[nH]1`, the “hERG current change (%, negative = inhibition) at 10uM” value was -5.77%. Turning to `Cc1cc(C)n2nc(SCC(=O)N/N=C/c3cccc(Br)c3)nc2n1`, the “hERG current change (%, negative = inhibition) at 10uM” value came out at 3.45%.

For `CSc1ccccc1NC(=O)CCn1c(=O)sc2ccccc21`, the “hERG current change (%, negative = inhibition) at 10uM” value was found to be 4.6%. As for `O=C(CNS(=O)(=O)c1ccccc1)NNC(=O)C(Cl)Cl`, the “hERG current change (%, negative = inhibition) at 10uM” value amounted to 19.2%. The result for `C[NH+](C)CC(C)(C)CNS(=O)(=O)c1cccc(Cl)c1Cl.[Cl-]` reads 5.82%; that for `C/C(CC(=O)Nc1ccccc1)=N\NC(=O)COc1ccc(C)cc1Br`, 2.14%; that for `COC(=O)c1[nH]c2ccc(Br)cc2c1NC(=O)Oc1ccccc1`, 18.6%. The result for `O=C(CSc1n[nH]c(=O)n1C1CC1)N1N=C(c2ccc(Cl)cc2)CC1c1ccco1` (stereo not shown) reads -14.9%.

Regarding `Cc1ccc(C(=O)COC(=O)CN2C(=O)C3C4C=CC(C4)C3C2=O)cc1C` (stereo not shown), the “hERG current change (%, negative = inhibition) at 10uM” value stood at 16.4%. As to `O=C(CN(CC1CCCO1)C(=O)CNS(=O)(=O)c1ccc(Cl)cc1)NCc1ccccc1` (stereo not shown), the “hERG current change (%, negative = inhibition) at 10uM” value is -10.8%. The result for `O=C(NC12CC3CC(CC(C3)C1)C2)c1cc([N+](=O)[O-])ccc1N1CCOCC1` reads -29.2%; that for `Cc1cc(C)cc(SCc2noc(C(=O)NCCCN3CCOCC3)c2C(=O)NCCCN2CCOCC2)c1`, -30.4%. For `O=C(O)c1cc(S(=O)(=O)NC(CO)C(O)c2ccc([N+](=O)[O-])cc2)ccc1Br` (stereo not shown) the value was 7.6%; for `NS(=O)(=O)c1ccc(CCNC(=O)CSCc2ccccc2)cc1`, -11.2%. For `COc1ccc(-c2csc3ncnc(NCCN4CCOCC4)c23)cc1`, the “hERG current change (%, negative = inhibition) at 10uM” value is -22.6%.

In the case of `CC1=Nn2c(nnc2-c2ccccc2F)SC1`, the “hERG current change (%, negative = inhibition) at 10uM” value worked out at 13.8%. The result for `CN(C(=O)CSc1nc2ccccc2n1CCc1ccccc1)C1CCS(=O)(=O)C1` (stereo not shown) reads -18.9%; that for `CC1(C)CCN(Cc2ccccc2)C1CC#N` (stereo not shown), 1.57%. In the case of `CCOC(=O)CNC(=O)Cn1cnc2c(nnn2-c2ccccc2)c1=O`, the “hERG current change (%, negative = inhibition) at 10uM” value is -9.92%. For the compound `N#CC(Cc1ccccc1)(Cc1ccccc1)C(=O)NN`, the “hERG current change (%, negative = inhibition) at 10uM” value is reported as 8.09%. For `COC(=O)C1CCN(CC(=O)NC(=O)NC2CCCCC2)CC1` the value was 4.61%. `COc1ccc2c(c1)cc(C(=O)N[C@H](C(=O)N1CCC(C(=O)O)CC1)C(C)C)n2C`: the “hERG current change (%, negative = inhibition) at 10uM” value stood at 27%. For `CC(C)CCN1CCC(C)(NC(=O)c2ccccc2)C1=O` (stereo not shown) the value was 7.35%; for `O=C(Cn1nc(C(F)(F)F)c2c1CCCC2)Nc1ccc2c(c1)OCO2`, -4.34%; for `COC(=O)Cn1nc(-c2ccccc2)c2cc(Cl)ccc21`, -0.627%. The result for `CCC(c1nnnn1Cc1ccc(OC)cc1)N1CCN(c2ccc(OC)cc2)CC1.Cl` (stereo not shown) reads -22.3%; that for `O=C(COC(=O)C1(c2ccccc2F)CCCC1)NCc1cccs1`, -6.49%.

Regarding `c1ccc2c(c1)CCN(c1nc3cc4c(cc3s1)OCCO4)C2`, the “hERG current change (%, negative = inhibition) at 10uM” value amounted to 12.4%. The result for `Cc1cc(OC(C)C(=O)NCc2ccncc2)c2c(C)c(C)c(=O)oc2c1` (stereo not shown) reads -37.4%; that for `CN(C)c1ccc(CNC(=O)C2CCN(S(=O)(=O)c3ccc4c(c3)CCCC(=O)N4)CC2)cc1`, 1.95%; that for `O=C(O)C(=O)O.c1ccc(CN2CCN(CCOCCOc3cccc4ccccc34)CC2)cc1`, -43.3%. With `CCc1nnc(NC(=O)CCN2C(=O)c3ccccc3C2=O)s1`, the “hERG current change (%, negative = inhibition) at 10uM” value is -9.71%. Regarding `COc1ccc(CCn2nnnc2C(CC(C)C)N2CCN(c3ncccn3)CC2)cc1OC` (stereo not shown), the “hERG current change (%, negative = inhibition) at 10uM” value was determined as 0.573%. Take `CCCOc1ccccc1NC(=O)Nc1ccccc1Cl`: the “hERG current change (%, negative = inhibition) at 10uM” value amounted to 16.6%.

As for `CCN(CC)CCOC(=O)c1c(C)n(C)c2ccc(OC)cc12.Cl`, the “hERG current change (%, negative = inhibition) at 10uM” value was -17.9%. Consider `O=C(Nc1cccc(NC(=O)c2ccc(-c3cccc(Br)c3)o2)c1)c1ccco1`, for which the “hERG current change (%, negative = inhibition) at 10uM” value is recorded as 4.15%.

As to `COc1ccccc1CNS(=O)(=O)c1ccc(S(=O)(=O)NC2CC2)cc1`, the “hERG current change (%, negative = inhibition) at 10uM” value came out at 15.3%. The result for `O=C(C1CCCO1)N1N=C(c2ccc(Br)cc2)CC1c1ccco1` (stereo not shown) reads -14.2%; that for `CC(=O)Nc1cccc(C(=O)OCC(=O)Nc2nnc(-c3ccccc3)o2)c1`, -1.06%; that for `CC(=O)N/C(=C\c1cccs1)C(=O)O`, 31.6%. For `O=C(Nc1nnc(-c2ccco2)o1)c1cccc(Cl)c1` the value was 24%; for `COc1cc(CNc2cc(C)ccc2C)cc(OC)c1OC`, -4.46%; for `COc1ccccc1N1C(=O)CC(Sc2ccccc2N)C1=O` (stereo not shown), 0.966%. As to `COc1ccc(NC(=O)Nc2c(C)n(C)n(-c3ccccc3)c2=O)c(OC)c1`, the “hERG current change (%, negative = inhibition) at 10uM” value was determined as 23.1%. For `COc1ccc(/C=C/C(=O)C23CC4CC(CC(C4)C2)C3)cc1CN1CCOCC1`, the “hERG current change (%, negative = inhibition) at 10uM” value was -34.7%.

As for `C[C@H](NC(=O)c1nc[nH]c1C(=O)NC1CCN(C(=O)OC(C)(C)C)CC1)C(=O)OCc1ccccc1`, the “hERG current change (%, negative = inhibition) at 10uM” value was -34.4%. For `O=C(c1ccc(Cl)cc1Cl)C1(n2cncn2)Oc2ccccc2C1O` (stereo not shown) the value was -30.2%; for `O=C(NCC1CCCN1S(=O)(=O)c1cccs1)C(=O)Nc1ccccc1` (stereo not shown), -5.75%. For `COc1ccc(CC(=O)Nc2cc(Cl)ccc2N2CCCC2)cc1` the value was 15.7%; for `O=C(Nn1cnnc1)c1ccccc1F`, 17%; for `Cc1nc(C)c(C(=O)Nc2ccccc2)s1`, -3.01%. As for `COCC(C)n1c(SCC(=O)NNC(=O)c2ccc(F)cc2)nc2ccccc2c1=O` (stereo not shown), the “hERG current change (%, negative = inhibition) at 10uM” value was -31.1%. The result for `O=C(c1cccc(S(=O)(=O)N2CCN(c3ccccc3)CC2)c1)N1CCCC(C(F)(F)F)C1` (stereo not shown) reads -17.5%; that for `C=CCOC(=O)C1=C(C)NC(SCC(=O)Nc2nccs2)=C(C#N)C1c1cccs1` (stereo not shown), 6.39%.

Consider `Cc1[nH]n(-c2ccccc2)c(=O)c1C=Nc1ccc(S(=O)(=O)NC(N)=O)cc1`, for which the “hERG current change (%, negative = inhibition) at 10uM” value was -11.3%.

`CCCN1CCN(CCCNC(=O)C2CCCN(c3nc4ccc(OCC)cc4s3)C2)CC1` (stereo not shown): the “hERG current change (%, negative = inhibition) at 10uM” value is recorded as -56.7%. The result for `CC(C)(C)OC(=O)N1CCC[C@H]1c1nnc(SCC(=O)Nc2ccc(Br)cc2)o1` reads -36.9%; that for `CO/N=C/C(C#N)=C/c1cc(C(=O)c2ccc(F)cc2)cn1C`, 10.5%.

As to `Brc1ccccc1-c1nnc(-c2cccnc2)o1`, the “hERG current change (%, negative = inhibition) at 10uM” value is on record as -9.12%.

`CC(=O)c1cccc(NC(=S)NNC(=O)c2ccco2)c1`: the “hERG current change (%, negative = inhibition) at 10uM” value came out at 24.9%. The result for `O=C1N(C2CCCC2)C[C@@H]2C[C@@H](c3cccn3-c3nccs3)N3CCC[C@@]123` reads -66.6%.

Turning to `Cc1ccc(S(=O)(=O)NC(=NC(C)C(=O)O)c2ccccc2)cc1` (stereo not shown), the “hERG current change (%, negative = inhibition) at 10uM” value came out at 8.71%. The result for `CCOc1ccc(S(=O)(=O)Nc2ccc3c(c2)OCO3)cc1` reads -14.9%. As to `Cc1ccc(C(=O)NC(=S)Nc2ccc(N3CCOCC3)cc2)cc1C`, the “hERG current change (%, negative = inhibition) at 10uM” value was -7.53%. Turning to `CCCn1c(SCC(=O)N2CCN(C(=O)c3ccco3)CC2)nc2ccccc2c1=O`, the “hERG current change (%, negative = inhibition) at 10uM” value was -82.8%. The result for `COc1ccc(N(C)C(=O)CCS(=O)(=O)c2cccc3nonc23)cc1` reads -6.8%.

On to `COC(=O)CNC(=O)CSc1nnc(C)c(=O)[nH]1`, for which the “hERG current change (%, negative = inhibition) at 10uM” value stood at 6.35%. The result for `Cn1c(CSc2nc3ccccc3s2)nnc1SCC(=O)NCCCN1CCOCC1` reads 8.89%. For `O=C(Nc1ccccc1)Nc1ccccc1-n1ccnc1` the value was -18.2%; for `CC(C)c1ccc(NC(=O)c2cccc(NC3=NC4CS(=O)(=O)CC4S3)c2)cc1` (stereo not shown), -11.1%; for `c1ccc2c(c1)Nc1ccncc1S2`, -9%. For `CC(NC(=O)CN1C(=O)COc2ccccc21)c1ccccc1` (stereo not shown) the value was -4.45%. Turning to `N#Cc1cccc(CSc2nnc(CCCO)n2-c2ccccc2)c1`, the “hERG current change (%, negative = inhibition) at 10uM” value was found to be 1.43%. In the case of `CCOc1ccc(CCNC(=O)Cn2cccc2C(=O)c2ccccc2C)cc1OCC`, the “hERG current change (%, negative = inhibition) at 10uM” value is -19%. For the compound `Cl.O=C(c1ccc(Cl)cc1)C(CN1CCCCC1)c1ccccc1` (stereo not shown), the “hERG current change (%, negative = inhibition) at 10uM” value is given as -45.9%.

For `CN(C)c1cccc(N(C)C)c1CNC(=O)C(C)(C)C`, the “hERG current change (%, negative = inhibition) at 10uM” value is listed as -1.08%. Take `CC(C)/C(=N\NC(=O)Nc1ccccc1)c1ccccc1`: the “hERG current change (%, negative = inhibition) at 10uM” value was found to be 3.63%. Take `O=C1[C@@H]2Cc3c([nH]c4ccccc34)CN2C(=O)CN1CCO`: the “hERG current change (%, negative = inhibition) at 10uM” value came to 19%. Turning to `CC(=O)N1c2ccc(S(=O)(=O)N3CCC(C(=O)N4CC(C)CC(C)C4)CC3)cc2CC1C` (stereo not shown), the “hERG current change (%, negative = inhibition) at 10uM” value stood at 18.4%. The result for `C=CCN(CC=C)S(=O)(=O)c1ccc(C(=O)Nc2nc3c(s2)CCc2ccccc2-3)cc1` reads 2.35%.
